# Data: article PMC10726135
# The list shows a part of the results. At the low end of the ranking, values are background and their order means little. Measured with an extract: partners may take part in the binding.
# Molecular target: T1, HNF4alpha2 (COS-7 nuclear extract) (UniProt P41235)
# T1 sequence: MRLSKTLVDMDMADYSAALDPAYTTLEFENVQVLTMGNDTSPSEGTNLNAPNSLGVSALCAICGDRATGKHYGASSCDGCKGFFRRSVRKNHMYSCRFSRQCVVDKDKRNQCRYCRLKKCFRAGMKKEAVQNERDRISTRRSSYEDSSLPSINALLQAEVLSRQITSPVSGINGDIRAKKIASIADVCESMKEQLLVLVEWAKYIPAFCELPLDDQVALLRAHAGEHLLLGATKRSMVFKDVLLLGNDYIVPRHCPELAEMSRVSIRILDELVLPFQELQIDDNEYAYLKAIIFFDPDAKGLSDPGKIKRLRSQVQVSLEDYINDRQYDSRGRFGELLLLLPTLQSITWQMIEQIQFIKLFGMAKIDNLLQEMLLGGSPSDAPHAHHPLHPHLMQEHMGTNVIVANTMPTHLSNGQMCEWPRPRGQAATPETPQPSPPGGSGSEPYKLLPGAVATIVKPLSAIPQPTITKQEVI
# Assay: protein-binding microarray
# Settings: COS-7 nuclear extract on double-stranded Agilent 4x180k PBM; binding buffer, salt, pH and temperature not given; high values mean tight binding; double strand, one strand shown; sequences stand for … in …GCCTAGGGAGATTAGAGTATCGGTCGA
row,Sequence,binding signal (log2 normalized intensity)
1,TGGGCCCAGATATACAAGAAAGAAAGAATG,0.371
2,GACTCCAAAGGGCTGGAGACTGAGTAACTA,-1.16
3,TCCTATCACCATATCCCTGAGAGGCCAGTT,0.3
4,AGCAACAGCTGCAGTGAAATTCTGGCCAAC,-1.09
5,TGGGCCACCTGAGACAGTTTATGCCAGCAA,-1.27
6,GTGTACTGGGCAGATAACAGCGAACATGAG,-0.61
7,AGTTCAGAGAGGAATCGGCAGTTTGGGCCT,-0.99
8,CCCAGCCAGGAGCAGAAAGGAGGCAGAGAC,-1.15
9,TGGGCAGGGGCATCCTCATTGCCTCTGGGC,-0.696
10,TGCACAAATTTCAGATATCTGAATGTACCT,1.65
11,CGGGAAAGGCCGGAGGGCGGGGCGGGGCAG,-1.09
12,TGTTCATTATGTCTTATCTACCTGGCTTGT,1.54
13,TCTGTGGTCAGGGCCTTTCCAGCAAATCCC,-1.09
14,GGCCCAGGGACTCAGGCACACAAAAAAAAC,-1.18
15,TTGCTAGATTCTTTCTTCCTTTTGAAAAAG,-0.902
16,AAGGCAAGATCATTCCAGGAATGTTCAAGA,-0.0989
17,GTACAGCCTGTGCTAAGTTTCAAAGAGGAG,-1.14
18,ACACTGGGAGGCAAATCTCTTGGTCATGGA,0.785
19,CCCTCAGCAACTGCAAGGCTGACCCGTGAA,1.4
20,ATAATGCATACGCTAGCTTTCTGGTCTTTG,1
21,TTGCGGATAGATATGTTGAAGTGACTAAAT,-0.668
22,GATAATAGTGGCTGAAAGTACTGGCCAGAT,0.455
23,ACATTCTTTCTGCATCGCAGTCGCCTGCAA,-1.13
24,TTTTACAATGCAAACCTAACAGGCTGTAAG,-1.14
25,CTCTCCCAGCGGGTCATTAATTCCCAGGAA,0.616

row,Sequence,binding signal (log2 normalized intensity)
1,GCCTTGCCGTGCTGCGGTGGGCTCCACCCA,-1.21
2,GCTTTTGTCATGACCTTCGCTCTTGATGGG,3.98
3,CTCATAACTAGGGTTCCAAGACCAAGCAAG,-0.942
4,GGAAAAGATTAGATTGCTCAGAGGCACAGT,-1.17
5,TTCCCGCCCAAGGAGACAGGCTTTGAGCAT,-0.909
6,GAGCCCTTAGGGTCAATGGGACATTGCATT,1.76
7,CACTGACTAAAGCAAGTCAGATGGCCAAAG,-1.08
8,CACAGAAGTCTTTCCCTGCCAGTTCCATGT,1.17
9,AAGGCAGAGCACTAAATCTCTCCTAGAGAA,-1.33
10,TTGGTTGTTCTGTTTAACAGAGATTTGCAG,0.558
11,ACATAGCAGGCATACCAGGCAGAGGGTTAA,-1.04
12,CCCTAGACACCGGGTGAAGGTTAAATAGCT,-0.99
13,ATTCCCTTCCCCTCCTTAGGAAAGAGACAT,2.36
14,TCCTTCTTGCTTAGGATAGGGTCAGTCTTT,2.25
15,AGCAGTGACTTGAGAGGCCAGTTTCTCCAC,-1.03
16,ATACTGGATAACCTTCCAGACAGAGAGGTC,1
17,AGCATGGTCCACAGCTTTGGGCATACAAAA,-1.15
18,AAATCTGCCCAACCTTTGCCCCTGGAGGGA,3.74
19,AGCAAGAGCACAAGAACAAAAACTGTTTCT,-1.22
20,CCCTCCTCCTTTTTTTCCCCTCCCTCAGCT,3.64
21,AGAAGTAAGAAATCAGGAGCAAAGGTTGGG,1.57
22,AGCAGGTGTTCACCTTCAGTCACACTGTTT,0.0787
23,AGGGGGCAGGAGCCCAAGAAGCGTCAGTTG,-1.09
24,AATCGAATTGTGAAACTCAGAATCAGGGGA,-1.18
25,TCTCGCTGCTTCGGCCTTTGACCTCGTGAT,6.52

row,Sequence,binding signal (log2 normalized intensity)
1,CTTTGTTCCCTGGCTCACTGACTCAGTCTT,-1.02
2,TAAAGCCCTGGGGTAATAAAAGTGTACAAA,0.211
3,GAGGGAGACAACCTTTGGTCACTTGTAAGA,2.82
4,CAGAATTGCTGCTCCCCCTCCCAAATCGGT,4.41
5,CCTTTGGTGCCTCTTTTTTCTTGTTGACTT,2.44
6,CTGGAGGGACTGTGATGAAGGCAGAAAGAA,-1.02
7,GGCCTCAGGTTCAAAGGGCTTAATCTTTCC,1.49
8,ACAGCACCTCTCTGATGCCATGATAAGCAG,-1.12
9,CATAAACACAGACACACATGAGCTAGTGCT,-1.16
10,GGGTTCACATTCCAGCTCTGTGACTTTACC,1.42
11,AGCCCCACAGAGCAAAGGTCATGCATAGAA,4.52
12,ACAACCCCTACTGTACCCTATGCACCCCAC,4.27
13,TAAGGAGGTAGAGTCTAAGGCTAAAACATC,-1.17
14,GGCTCAGCATTCTGAGGGCCTCCAATAGGG,-1.29
15,GCCCAACTCGGAGGACTGAGCCCGCTCCAC,-1.23
16,GGGCATTACTTGCTGGAGAAAGAGGGGAAG,-0.991
17,GAGTTTAAATGACCTCTGCCCTTCCACCCA,4.71
18,ATGAAAGCGCCTTGCTTTCTGCCCAGGGAG,-0.941
19,GAGATAAGATCAGTATAGTTAGGGCCTTGC,0.213
20,TATCAGTGTAACTATTACTGGACAGCCAGC,-1.06
21,ATAGGCTGGGATGATTTCAGCTTATAAATC,-1.12
22,TTGCAAGTCTGAGGCTGCTCTCTGTCCCTG,0.522
23,GTCTGCAGCTGAACCATATTCTTTACATTT,0.995
24,TGAGAGAGCCCCTGTGATACAACGGTTCAA,0.456
25,TGTGGCTGCCAAGACACAGAGAAAAAGAAG,-1.04

row,Sequence,binding signal (log2 normalized intensity)
1,GGTCATCAGGACTCTAACTGGCTTTAAGAG,-0.791
2,GTGATTAGTGCAAGAATCCAAGAATTCGAT,-1.13
3,GAGGGCGAGGCCGAGCCTCAGCCGGGAGAG,-1.04
4,CTGAGAGTCACTGCCTTATCGTATTCTTAT,0.822
5,CAGAGATTGGAATCTCTGCACAGCATAGAA,-1.23
6,GAGGAGCACAGAAGGAGAGAGAGGGAGAGT,-1.1
7,AAAGAATAACGTTACAGTGGAGAAACCTGA,-1.22
8,CTTATCAGCAGGAGACCTGAAACTAGACCA,-1.1
9,CACTAATCTGTCAGAAAACCCACGCCCACC,2.46
10,GGTTGTAAAATGAGGTCAGCATGGTGGGAG,0.99
11,CACATTTCAGGAATGTTTTATGTGCTCCAT,1.57
12,AATTGAGATAAACATGAAACAGTCACAGTT,-1.07
13,GCCCCGAGATAACCCCTCTCCAAGCCAGAA,4.09
14,AGGGAGGAAGGCAACCACAGCCTCTGCATT,-1.18
15,ATATCAACTGGACAAATTCCTGGGAACTGC,-1.11
16,TTCATAGGTCCTCTTGGAAGATGCCTTTTT,1.55
17,ATGAAGATGCAGAACAAGGTAGCCACAGAA,-1.04
18,TCTCTGTTGACCACCTGCCCCAGGAATGCC,2.29
19,TTCACTTGCCACATTTATTGTGAGATTACG,1.23
20,AAGTCTCTAGATGGGGTTGAGCAGACTAAA,-0.224
21,CCTCCCCTCCCCCTTGGTGTTTAAACACAT,4.78
22,AACCACAGAAATGCCGCTAATGTATTTCGG,-0.619
23,ATGACCAGCAGGGTGACCAGTGGACCATGA,2.17
24,GGACCGCAGAGGCTGGAGCAGGCCATGTGC,-1.28
25,GTGGACTTTCACCTCCACCAGATAGCAAGG,3.25

row,Sequence,binding signal (log2 normalized intensity)
1,TTGCCCAGAGGGGTTCCTCAGTAAATGCTG,-1.17
2,GTCAGAGTGCTGCATGCAAAAAGGCTGACC,1.41
3,GAAAAGTGTTTGCCAAAGGATATCTTTAAT,0.994
4,GCGGAGAGGGTTCTCACTCCTCTATCAGTA,-1.08
5,TGCTGGAAACCTAGGAGTTATCTAAGACCC,-1.15
6,GGGCCATGACCTTTACCCCCATTTGGTAAT,6.29
7,AAGGTCAAACAGTGCACTGAAATCTCTCAA,-1.1
8,CAGTGATATTCTCTCGTCACCTCCACCCAC,2.81
9,GCTCTGGCCACTCCCTGGGCAGTGCAGTAT,-1.06
10,TCCCCACCCCCAACTTCCCCAACCCTTGCA,6.3
11,TCCCAGCATTCCAAGTGAGTAAGGAAAGCC,-1.17
12,AGACCCTCTTTTCTTTGTACCGTATTTCAG,1.74
13,GCAACTACTCTCTCTTCTGGAGGAGGATCA,-1.04
14,TAGGTATGCCCCATGGTAAGAACTACAGTT,0.881
15,CATCCTGAACAAATGTACTGGATATAGCCA,-0.545
16,TTGCCATGACCTTTGAAGCCCAGAACACTC,3.59
17,CCCAGCGGAAGTCCAGTGGTGTCTTACCGG,0.489
18,TTCTGGAGGATTAGTGGGAGATAAGGTGGA,0.815
19,TCTTAGGAAAGCACAGCTGATTGCTCAACC,-1.19
20,TGGTTCCTGGAAAAGTCTCAGGGGCCTTGC,-0.0705
21,TTGGACAGAGTTTGTGGTGTTTGTGGCATT,2.07
22,AAGGTCAATCTGGATTGTACTGTGTCTTGA,2.52
23,TGTTATCTCAGTAGACTAACGTATGGACTT,2.63
24,CTTCGGCCAGCACAGGAGGCCTCTCAAAGC,-1.07
25,GCTACACAGATAAGCCATTCGTAACCTTCA,-0.598

row,Sequence,binding signal (log2 normalized intensity)
1,GACATTCAATTGCAAGCTTATCTTCCCAGG,-0.941
2,TGAATGTCCAACTTGCCCTGGTCTCACATC,0.676
3,CACGTGGCTAGATTGCAACCAAGTCCATCT,0.0671
4,TAATTCTTCAAAGGAGTGGAGGAAGGAAGA,-0.71
5,GGAATGAAAGGAGGTCATGTACATGAAAGC,1.64
6,AGCACCTGAAGAATTTGGACTTTGCACTAA,8.43
7,CGGCTGGTATCCACAGGAGGCCCCATCGCA,-1.17
8,AATGGCAGACTAAACTCACAATGGGGCATG,-1.06
9,AGGGTTGGAATGTCTTTGGGTGGAGGGGAG,-0.603
10,TAAACAGTGACTCATGCAAGCCTGAGGGAG,-1.1
11,CGAGAGAGCCTGGACACACGAATAATGGAG,-1.18
12,AAACCTGGTAGCGTGTAGTAAAGCTCATGA,-1.08
13,AAGCAAACATACTGCTTATTTAAATTTCTT,-1.13
14,GCTCTCCGTGGACTTTGCCCCCTACAGTTT,9.73
15,TCTGATGGCGTATGCAGCAGGGCAGCAGCC,-1.02
16,GTAGAGAGCAGTCCTGCACATGAATGATCA,-0.769
17,TTTTGTAGATGCCTGCTTTCCACTCCCATT,1.36
18,GGAGGTCTGGAATGTGGAGAATGGCAAGAG,-0.483
19,AACTTCTTATCACTTGGTGGACATGGTTCA,2.02
20,TTGAATTCCTTCTTCTTCTGGGGACTTCGG,1.92
